Results published in PubChem BioAssay AID686971 (National Center for Advancing Translational Sciences (NCATS), 2013).
The whole screen tested about 360,000 compounds, of which about 7,500 (2.1%) were called active. This list was built around the results that the source calls inconclusive (neither active nor inactive); the mix of calls is not that of the screen. Calls follow the shape of the dose curve; as a rule, active = well fitted cell-killing curve with a large enough effect; inconclusive = small, poorly fitted or top-dose-only effect, or effect the other way, or another doubt; inactive = no such curve, though single readings can be large or run the other way. Potencies of inconclusive entries are left out as doubtful fits.

assay: qHTS for induction of synthetic lethality in tumor cells producing 2HG: qHTS for the HT-1080-IDH1KD cell line; conditions: HT-1080 IDH1 knockdown viability, ATP luminescence, 48 h; activity, negative = toxicity: at 46.1 µM (top of the series) unless noted;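 as to activity, negative = toxicity: 0% = DMSO wells and -100% = cell-free medium wells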
Outline: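 HT-1080-IDH1KD cells (IDH1 knocked down), 750/well in RPMI with 5% FBS, treated with compound 48 h at 37 degrees C. Viability by CellTiter-Glo luminescence, normalised to DMSO and no-cell wells; concentration-response curves classed.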
Potency is read from the fitted curve at half-maximal effect; tags tell the direction and shape of the fitted curve.

Row | Compound | Potency | activity, negative = toxicity
1 | COc1ccc(/C=N/NC(=O)c2[nH]c3ccc(Br)cc3c2-c2ccccc2)cc1 | active: 0.0052 µM | 
2 | Cc1ccsc1/C=N/n1c(-c2ccccc2)n[nH]c1=S | inconclusive [rising, partial curve] | 
3 | Cc1cccc(NC(=O)CSc2nc3ccccc3nc2N2CCCC2)c1 | inconclusive [cytotoxic, single point] | 
4 | Oc1ccc(C[C@H]2CNC(=S)N2CC2CCCN2C[C@H](Cc2ccc(O)cc2)N2C[C@H](Cc3ccc(O)cc3)N(CC3CCCCC3)C2=S)cc1 (stereo partly specified) | inconclusive [cytotoxic, single point] | 
5 | O=C(Cc1ccc(Cl)cc1)NCCc1cnc[nH]1 |  | inactive: 11.3%
6 | C(=N\n1cnnc1)/c1ccccc1OCCOc1ccccc1 | inconclusive [cytotoxic, single point] | 
7 | O=C1c2cccc3cccc(c23)C(=O)C1(O)O | active: 18.4 µM | 
8 | CCN1/C(=C/c2ccc3cc(C)cc(C)c3[n+]2CC)Sc2cc(C)ccc21 | inconclusive [cytotoxic, partial curve, poor fit] | 
9 | CC1(C)CC(N2CCN(C(c3ccccc3)c3ccccc3)CC2)=CC(=[N+]2CCCCC2)C1 | active: 2.59 µM | 
10 | CCC1CCCCN1c1cc(C)nc2cc(-c3cccc(C)c3)nn12 (stereo unspecified) | inconclusive [cytotoxic, single point] | 
11 | O=S(=O)(NCCOc1ccccc1Cl)c1ccc2oc3ccccc3c2c1 | inconclusive [cytotoxic, single point] | 
12 | O=C(O)c1ccc(C=C(c2nc3ccccc3s2)c2nc3ccccc3s2)cc1 | inconclusive [cytotoxic, single point] | 
13 | COCCn1c(N)c(C(=O)NS(=O)(=O)c2ccc(C)cc2)c(=O)[nH]c1=O | inconclusive [cytotoxic, single point] | 
14 | COc1ccccc1N1CCN(C(=O)c2cc(-c3ccc(F)cc3)[nH]c2C)CC1 | inconclusive [cytotoxic, single point] | 
15 | CN(C)S(=O)(=O)c1cccc(NC(=S)N/N=C/c2cc(Br)ccc2O)c1 | inconclusive [cytotoxic, single point] | 
16 | O=C(NN=Cc1ccc2c(c1)OCO2)c1ccccc1 | inconclusive [cytotoxic, partial curve, poor fit] | 
17 | COc1ccc(C(C)(O)c2nc(-c3cccc(C(C)C)c3)cs2)cc1 (stereo unspecified) | inconclusive [cytotoxic, single point] | 
18 | CNc1cc(-c2ccc(OC)c(OC)c2)ncn1 | inconclusive [cytotoxic, single point] | 
19 | COc1ccc(NC(=O)c2cc(S(=O)(=O)N3CCCCC3)c[nH]2)cc1 |  | inactive: -10.7%
20 | O=C(N/N=C/c1cccc(F)c1)c1c(O)c2ccccc2[nH]c1=O |  | inactive: -9.34%
21 | CCOc1cc(NC(=S)Nc2ccc(Cl)cc2)c(OCC)cc1NC(C)=O |  | inactive: -14.1%
22 | CCOC(=O)Cc1c(C)nc2c(-c3ccccc3)c(-c3ccccc3)[nH]n2c1=O | inconclusive [cytotoxic, single point] | 
23 | Cn1ncc([N+](=O)[O-])c1C(=O)Nc1nc2ccccc2n1CCN1CCCCC1 |  | inactive: 5.08%
24 | Cc1ccc(Cl)cc1N1CCN(C(=O)CCCn2c(=O)c3cccn3c3cccnc32)CC1 |  | inactive: -1.97%

Row | Compound | Potency | activity, negative = toxicity
25 | O=C(NC1CCCCC1)C(c1cccnc1)N(C(=O)CCl)c1ccccc1Cl (stereo unspecified) | active: 16.4 µM | 
26 | Cc1cc(C)cc(-n2c3ccc(NC(=O)Cc4cccc5ccccc45)cc3c(=O)n2C)c1 | active: 2.06 µM | 
27 | COc1ccc(C(=O)NCC(=O)OCC(=O)Nc2cccc(S(=O)(=O)N3CCCC3)c2)cc1 |  | inactive: -2.05%
28 | CC(=O)Nc1ccccc1P(=O)(c1ccccc1)c1ccccc1OC(C)=O (stereo unspecified) |  | inactive: 1.26%
29 | CCN1CCN(C(c2cccs2)C(C)NC(=S)Nc2cccc(C)c2C)CC1 (stereo unspecified) |  | inactive: 9.32%
30 | Cc1ccc(OCC(=O)N/N=C/c2ccc3c(c2)OCO3)cc1C | inconclusive [cytotoxic, single point] | 
31 | COc1cc(Cl)c(S(=O)(=O)n2cnc(C)c2)cc1Cl | inconclusive [rising, single point] | 
32 | CCCCC[C@H](C)N1C[C@@H](COCc2ccccc2)Oc2cc(N3CC[C@@H](N(C)C)C3)ccc2S1(=O)=O | active: 18.4 µM | 
33 | Cc1cccc(NS(=O)(=O)c2cc(C(=O)NCCC3=CCCCC3)ccc2Cl)c1 | inconclusive [cytotoxic, single point] | 
34 | CCOC(=O)C1CN(S(=O)(=O)c2ccc(OC)cc2)c2cc(CC(=O)OC)ccc2O1 (stereo unspecified) |  | inactive: -8.59%
35 | C[C@@H]1CCCCO[C@H](CN(C)C(=O)CCC(F)(F)F)[C@@H](C)CN([C@H](C)CO)C(=O)c2cc(NC(=O)c3ccncc3)ccc2O1 |  | inactive: -6.6%
36 | CS(=O)(=O)N1CCN(c2ccccc2NC(=O)c2ccc(-c3ccc(Br)cc3)o2)CC1 | inconclusive [rising, full curve] | 
37 | CC(C)c1cccc(C(C)C)c1OC(=O)[C@H]1OC(c2ccc(Br)cc2)=C[C@@H]1c1ccc(Br)cc1 | inconclusive [cytotoxic, single point] | 
38 | O=C1COc2ccc(S(=O)(=O)CCC(=O)N3CCN(c4cccc(Cl)c4)CC3)cc2N1 | inconclusive [cytotoxic, single point] | 
39 | NC(=O)NC(=O)COC(=O)c1ccc(Cl)c(S(=O)(=O)N(Cc2ccccc2)c2ccc(Cl)cc2)c1 | inconclusive [cytotoxic, single point] | 
40 | CC(=O)Oc1ccc(/C=N/NS(=O)(=O)c2ccccc2)cc1 |  | inactive: -15.6%
41 | CCCCCC(=O)Nc1nc(C)c(-c2csc(Nc3cc(Cl)ccc3C)n2)s1 | inconclusive [cytotoxic, single point] | 
42 | Cc1ccc2nc(-c3ccccc3)c(CC3CCCCC3)n2c1 | inconclusive [cytotoxic, single point] | 
43 | Cc1nc2c(C)cccc2cc1C(=O)N/N=C/c1ccc(N(C)C)cc1 | inconclusive [cytotoxic, single point] | 
44 | Cc1cc(C)c2nc(NCCCNC(=S)NCCCN(C)C)c(C#N)cc2c1 | inconclusive [cytotoxic, single point] | 
45 | Cc1cccc(NC(=O)c2n[nH]c([N+](=O)[O-])c2Br)c1C | active: 25.9 µM | 
46 | C(=C\c1nccc2c1[nH]c1ccccc12)/c1ccccc1 | inconclusive [cytotoxic, single point] | 
47 | CCN(CC)CCSc1nnc2c3cc(C)ccc3n(Cc3ccccc3)c2n1 | active: 23.1 µM | 
48 | O=C(O)CC1CCC(=C(Cl)Cl)C1 (stereo unspecified) | inconclusive [cytotoxic, single point] | 

Row | Compound | Potency | activity, negative = toxicity
49 | Cc1ccc(-c2csc(/C(C#N)=C(\O)CCl)n2)cc1 |  | inactive: -13%
50 | COC(=O)c1ccc(C(C(=O)NC2CCCCC2)N(Cc2ccccc2)C(=O)Cc2cccs2)cc1 (stereo unspecified) |  | inactive: 7.44%
51 | CCCCCC(=O)N/N=C/c1ccc([N+](=O)[O-])o1 | inconclusive [cytotoxic, single point] | 
52 | Nc1ccc(C(=O)n2c3ccccc3c3ccccc32)cc1 | active: 0.92 µM | 
53 | COc1ccc(NC(=O)CN(C)C(=O)CCCSc2nc3ccccc3[nH]2)cc1 |  | inactive: -4.49%
54 | CCOc1ccc(-c2nnc(NC(=O)Cc3cc(OC)c(OC)c(OC)c3)o2)cc1 |  | inactive: -2.34%
55 | CCOC(=O)C[C@H]1c2ccccc2S(=O)(=O)N1Cc1cc(OC)c(OC)c(OC)c1 |  | inactive: -1.85%
56 | Cc1c(Cl)cccc1N1C(=O)C(N2C(=O)c3cccc([N+](=O)[O-])c3C2=O)C1c1cccs1 (stereo unspecified) | inconclusive [cytotoxic, single point] | 
57 | COc1cc2nc(N3CCOCC3)nc(NC3CCN(Cc4ccccc4)CC3)c2cc1OC | inconclusive [cytotoxic, single point] | 
58 | CCc1nnc(NC(=O)C2CCCN2C(=O)Nc2ccc(C)cc2)s1 (stereo unspecified) |  | inactive: 9.04%
59 | CCc1ccc(S(=O)(=O)/N=C2/C=C(Sc3ncn[nH]3)C(=O)c3ccccc32)cc1 | active: 5.17 µM | 
60 | CS(=O)(=O)N(CC(=O)Nc1ccc(CC#N)cc1)c1ccc(C23CC4CC(CC(C4)C2)C3)cc1 | active: 10 µM | 
61 | COC(=O)c1sc2nc(N3CCCCC3)c3c(c2c1N)CCCC3 |  | inactive: -4.13%
62 | COc1cc(CNc2nnnn2C)ccc1OCc1c(F)cccc1Cl |  | inactive: 1.5%
63 | COc1ccc(OC)c(NC(=O)COC(=O)CCS(=O)(=O)c2ccc(Cl)cc2)c1 | inconclusive [cytotoxic, partial curve, poor fit] | 
64 | COc1ccc(N2CC(NC(=O)NCC(C)C)CC2=O)cc1 (stereo unspecified) |  | inconclusive: 31.5%
65 | c1ccc(C[n+]2cccc(-c3ccccc3)c2)cc1 |  | inactive: -6.5%
66 | C=CS(=O)(=O)N(Cc1ccc(Cl)c(Cl)c1)C[C@@H](O)CO | inconclusive [cytotoxic, single point] | 
67 | O=C1C(Cc2ccccc2)Nc2ncnc(N3CCN(c4ccccc4)CC3)c2N1Cc1ccccc1 (stereo unspecified) |  | inactive: 0.106%
68 | COc1ccc(NC(=O)C(c2ccncc2)n2c(=O)c(-c3cc4ccccc4[nH]3)nc3ccccc32)cc1 (stereo unspecified) | inconclusive [cytotoxic, single point] | 
69 | O=C(CN1CCN(Cc2ccc3c(c2)OCO3)CC1)N1CCc2[nH]c3ccc(F)cc3c2C1 | inconclusive [cytotoxic, single point] | 
70 | COc1ccc(C(=O)NC(=S)NNC(=O)c2ccncc2)cc1Br | inconclusive [cytotoxic, single point] | 
71 | CCCCCCN1C[C@H](n2cc(C3CC3)nn2)[C@@H](O)C[C@@H]1c1ccc(Cl)cc1 |  | inactive: -1.03%
